Values after ≈ are worked out from the molar mass of the structure shown.
Columns and labels:
[1] = system: A. fumigatus TR34/L98H (F10017, an azole resistant strain); settings: Aspergillus fumigatus, read-out: MIC99 A. fumigatus TR34/L98H
Procedure: The Minimum Inhibitory Concentration (MIC, at 99% inhibition) of the compounds was determined using the broth microdilution method as recommended by EUCAST (EUCAST Definitive Document E.DEF 9.3.2, Method for the determination of broth dilution minimum inhibitory concentrations of antifungal agents for conidia forming moulds and EUCAST Definitive Document E.DEF 7.3.2 Method for the determination of broth dilution minimum inhibitory concentrations of antifungal agents for yeasts).

[2] = system: T. b. brucei Lister S427 (a drug-sensitive wild type); test: Resazurin-based (Alamar blue) drug sensitivity assay; settings: for T.b. brucei Selectivity Indices (SI, IC50 (μM)/IC50 (μM)) Group / T.b. brucei Selectivity Index (SI, IC50 (μM)/IC50 (μM)), numeric value: cytotoxicity against HEK293 cells vs T.b. brucei; for IC50: Trypanosoma brucei, read-out: IC50 T.b. brucei
[3] = system: T. congolense IL3000 (a drug sensitive wild type); test: as above; settings: Trypanosoma congolense, read-out: IC50 T. congo
Procedure: A detailed description of the procedure for evaluating activity against trypanosomes, using an Alamar Blue (resazurin) assay, is described below.
The BSF T. congolense IL3000 and a clonal line, 6C3, adapted from IL3000 in vitro with diminazene aceturate (Merck), leading to a ˜10-fold resistance, were cultured in TCBSF3 medium without red blood cells (see Zheoat, A. M. et al., 2021, Pathogens (Basel, Switzerland), 10(2), 175). Dulbecco's minimum essential medium (MEM) was supplemented with 25 mM (4-(2-hydroxyethyl)-1-piperazineethanesulfonic acid) (HEPES), 26 mM NaHCO3, 5.6 mM Dd-glucose, 1 mM sodium pyruvate, 40 μM adenosine, 100 μM hypoxanthine, 16.5 μM thymidine, and 25 μM bathocuproinedisulfonic acid disodium salt. To this basal medium were added β-mercaptoethanol (0.0014% v/v), 1.6 mM glutamine, 100 units/mL penicillin/0.1 mg/mL streptomycin (Gibco), 20% goat serum (Gibco), and 5% Serum Plus (SAFC Bi-osciences) (see Coustou, V. et al., 2010, PLoS Negl. Trop. Dis., 4, e618 and Giordani, F. et al., J. Med. Chem., 2019, 62, 3021-3035). The BSF T. congolense IL3000 WT and its derived line, 6C3, were cultured at 34° C. in a humidified, 5% CO2 environment.
A resazurin-based (Alamar blue) drug sensitivity assay was used to assess and compare the activity of standard trypanocides in the different cell lines investigated (see Gould, M. K. et al., Anal. Biochem., 2008, 382, 87-93). Briefly, 23 doubling dilutions of the test compound of the invention, starting at 100 μM, and a compound-free control were prepared in 100 μL medium in a 96-well white plate (Greiner Bio-one, Frickenhausen, Germany). The cells were adjusted to 2×10^4 cells/mL for T. b. brucei and T. equiperdum; 4×10^4 cells/mL for T. evansi; and 5×10^5 cells/mL for T. congolense in the appropriate medium. 100 μL of the adjusted cells was then added to the wells containing drug dilutions and incubated for 48 h under respective culture condition. Thereafter, 20 μL of 125 mg/mL resazurin sodium dye was added, and the plate was incubated for a further 24 h. The resorufin fluorescence in each well of the plate was determined and used to calculate the Half maximal effective concentration (EC50) of the drug, as described in Carruthers, L. V. et al., Mol. Microbiol., 2021, 116, 564-588.

Structure (SMILES) | MIC99 [1] [µg/mL] | T.b. brucei Selectivity Indices (SI, IC50 (μM)/IC50 (μM)) Group ([2]; Alkyl Amidines and NH Pyrroles) | IC50 [2] [µM] | T.b. brucei Selectivity Index (SI, IC50 (μM)/IC50 (μM)), numeric value [2] | T.b. brucei Selectivity Indices (SI, IC50 (μM)/IC50 (μM)) Group ([2]; Amides) | IC50 [3] [µM] | T.b. brucei Selectivity Indices (SI, IC50 (μM)/IC50 (μM)) Group ([2]; Quaternary ammoniums)
[H]/N=C(\CCNC(=O)c1cc(NC(=O)c2cc(NC(=O)c3ccc(C=Cc4ccc(N(C)C)cc4)nc3)cn2C)cn1C)NCCCCCCCCC [Ia32, (E)-6-(4-(dimethylamino)styryl)-N-(5-((5-((3-imino-3-(nonylamino)propyl)carbamoyl)-1-methyl-1H-pyrrol-3-yl)carbamoyl)-1-methyl-1H-pyrrol-3-yl)nicotinamide] | > 50 | B (Group B: 70 < SI <= 150) | 0.05 to 0.25 | 106 | – | – | –
CC(C)NC(=O)c1cc(NC(=O)c2cc(NC(=O)c3ccc(/C=C/c4cnc5ccccc5c4)cc3)cn2C)cn1C [IVa4, (E)-N-isopropyl-1-methyl-4-(1-methyl-4-(4-(2-(quinolin-3-yl)vinyl)benzamido)-1H-pyrrole-2-carboxamido)-1H-pyrrole-2-carboxamide] | – | – | 0.25 to 1 | – | B (Group B: 0.7 < SI <= 1.5) | 0.25 to 1 | –
CCCC[N+](C)(C)CCNC(=O)c1cc(NC(=O)c2cc(NC(=O)c3ccc(/C=C/c4cnc5ccccc5c4)cc3)cn2C)cn1C [Ic3, (E)-N,N-dimethyl-N-(2-(1-methyl-4-(1-methyl-4-(4-(2-(quinolin-3-yl)vinyl)benzamido)-1H-pyrrole-2-carboxamido)-1H-pyrrole-2-carboxamido)ethyl)butan-1-aminium] | – | – | 0.05 to 0.25 | – | – | < 0.05 | C (Group C: 80 < SI <= 120)
Cn1cc(NC(=O)c2cc(NC(=O)c3ccc(/C=C/c4cnc5ccccc5c4)cc3)cn2C)cc1C(=O)NCCOCCOCCO [IVa7, (E)-N-(2-(2-(2-hydroxyethoxy)ethoxy)ethyl)-1-methyl-4-(1-methyl-4-(4-(2-(quinolin-3-yl)vinyl)benzamido)-1H-pyrrole-2-carboxamido)-1H-pyrrole-2-carboxamide] | – | – | > 1 | – | C (Group C: 1.5 < SI <= 3) | > 1 | –
C/N=C(\CCNC(=O)c1cc(NC(=O)c2cc(NC(=O)c3ccc(/C=C/c4ccc(N(C)C)cc4)nc3)cn2C)cn1C)NC [Ia8, 6-((E)-4-(dimethylamino)styryl)-N-(1-methyl-5-((1-methyl-5-(((E)-3-(methylamino)-3-(methylimino)propyl)carbamoyl)-1H-pyrrol-3-yl)carbamoyl)-1H-pyrrol-3-yl)nicotinamide] | 5 to 25 (≈ 8.2 to 41 µM) | – | – | – | – | – | –
CCCCCCCCC[N+](C)(C)CCNC(=O)c1cc(NC(=O)c2cc(NC(=O)c3ccc(/C=C/c4cnc5ccccc5c4)cc3)cn2C)cn1C [Ic8, (E)-N,N-dimethyl-N-(2-(1-methyl-4-(1-methyl-4-(4-(2-(quinolin-3-yl)vinyl)benzamido)-1H-pyrrole-2-carboxamido)-1H-pyrrole-2-carboxamido)ethyl)nonan-1-aminium] | – | – | < 0.05 | – | – | < 0.05 | D (Group D: SI > 120)
Cn1cc(NC(=O)c2cc(NC(=O)c3ccc(/C=C/c4cnc5ccccc5c4)cc3)cn2C)cc1C(=O)NCCC(=N)NCCC1CCOCC1 [Ia44, (E)-N-(3-imino-3-((2-(tetrahydro-2H-pyran-4-yl)ethyl)amino)propyl)-1-methyl-4-(1-methyl-4-(4-(2-(quinolin-3-yl)vinyl)benzamido)-1H-pyrrole-2-carboxamido)-1H-pyrrole-2-carboxamide] | – | – | 0.25 to 1 | – | – | 0.25 to 1 | –
CN(C)c1ccc(/C=C/c2ccc(C(=O)Nc3cc(C(=O)Nc4c[nH]c(C(=O)NCCN5CCOCC5)c4)n(C)c3)cn2)cc1 [IIIb3, (E)-6-(4-(dimethylamino)styryl)-N-(1-methyl-5-((5-((2-morpholinoethyl)carbamoyl)-1H-pyrrol-3-yl)carbamoyl)-1H-pyrrol-3-yl)nicotinamide] | > 50 | – | – | – | – | – | –
CCC[N+](C)(C)CCNC(=O)c1cc(NC(=O)c2cc(NC(=O)c3ccc(/C=C/c4cnc5ccccc5c4)cc3)cn2C)cn1C [Ic2, (E)-N,N-dimethyl-N-(2-(1-methyl-4-(1-methyl-4-(4-(2-(quinolin-3-yl)vinyl)benzamido)-1H-pyrrole-2-carboxamido)-1H-pyrrole-2-carboxamido)ethyl)propan-1-aminium] | – | – | < 0.05 | – | – | < 0.05 | –
[H]/N=C(\CCNC(=O)c1cc(NC(=O)c2cc(NC(=O)c3ccc(C=Cc4ccc(C#N)cc4)cc3)cn2C)cn1C)NC(C)C [Ia17, (E)-4-(4-(4-cyanostyryl)benzamido)-N-(5-((3-imino-3-(isopropylamino)propyl)carbamoyl)-1-methyl-1H-pyrrol-3-yl)-1-methyl-1H-pyrrole-2-carboxamide] | – | – | 0.25 to 1 | – | – | 0.25 to 1 | –
CCCC/N=C(\CCNC(=O)c1cc(NC(=O)c2cc(NC(=O)c3ccc(/C=C/c4ccc(N(C)C)cc4)nc3)cn2C)cn1C)NCCCC [Ia39, N-(5-((5-(((E)-3-(butylamino)-3-(butylimino)propyl)carbamoyl)-1-methyl-1H-pyrrol-3-yl)carbamoyl)-1-methyl-1H-pyrrol-3-yl)-6-((E)-4-(dimethylamino)styryl)nicotinamide] | – | – | > 1 | – | – | > 1 | –
CCCCCCCCCCCCCCCC[N+](C)(C)CCNC(=O)c1cc(NC(=O)c2cc(NC(=O)c3ccc(/C=C/c4cnc5ccccc5c4)cc3)cn2C)cn1C [Ic15, (E)-N,N-dimethyl-N-(2-(1-methyl-4-(1-methyl-4-(4-(2-(quinolin-3-yl)vinyl)benzamido)-1H-pyrrole-2-carboxamido)-1H-pyrrole-2-carboxamido)ethyl)hexadecan-1-aminium] | – | – | > 1 | – | – | > 1 | –
Cn1cc(NC(=O)c2ccc(/C=C/c3cnc4ccccc4c3)cc2)cc1C(=O)Nc1cc(C(=O)N2CCSCC2)n(C)c1 [IVb2, (E)-1-methyl-N-(1-methyl-5-(thiomorpholine-4-carbonyl)-1H-pyrrol-3-yl)-4-(4-(2-(quinolin-3-yl)vinyl)benzamido)-1H-pyrrole-2-carboxamide] | – | – | 0.25 to 1 | – | C (Group C: 1.5 < SI <= 3) | > 1 | –
CCNC(=O)c1cc(NC(=O)c2cc(NC(=O)c3ccc(/C=C/c4cnc5ccccc5c4)cc3)cn2C)cn1C [IVa6, (E)-N-ethyl-1-methyl-4-(1-methyl-4-(4-(2-(quinolin-3-yl)vinyl)benzamido)-1H-pyrrole-2-carboxamido)-1H-pyrrole-2-carboxamide] | – | – | 0.25 to 1 | – | C (Group C: 1.5 < SI <= 3) | 0.25 to 1 | –
CC(C)/N=C(\N)CCNC(=O)c1cc(NC(=O)c2cc(NC(=O)c3ccc(/C=C/c4ccc5nonc5c4)cc3)cn2C)cn1C [Ia13, N—((Z)-3-amino-3-(isopropylimino)propyl)-4-(4-(4-((E)-2-(benzo[c][1,2,5]oxadiazol-5-yl)vinyl)benzamido)-1-methyl-1H-pyrrole-2-carboxamido)-1-methyl-1H-pyrrole-2-carboxamide] | – | D (Group D: SI > 300) | < 0.05 | 922 | – | < 0.05 | –
CNC(=N)CCNC(=O)c1cc(NC(=O)c2cc(NC(=O)c3ccc(/C=C/c4ccc5ccccc5c4)cc3)cn2C)cn1C [Ia4, (E)-N-(3-imino-3-(methylamino)propyl)-1-methyl-4-(1-methyl-4-(4-(2-(naphthalen-2-yl)vinyl)benzamido)-1H-pyrrole-2-carboxamido)-1H-pyrrole-2-carboxamide] | – | – | > 1 | – | – | 0.05 to 0.25 | –
CCCCCCC/N=C(\CCNC(=O)c1cc(NC(=O)c2cc(NC(=O)c3ccc(/C=C/c4ccc(N(C)C)cc4)nc3)cn2C)cn1C)NCCCCCCC [Ia33, 6-((E)-4-(dimethylamino)styryl)-N-(5-((5-(((E)-3-(heptylamino)-3-(heptylimino)propyl)carbamoyl)-1-methyl-1H-pyrrol-3-yl)carbamoyl)-1-methyl-1H-pyrrol-3-yl)nicotinamide] | – | – | > 1 | – | – | > 1 | –
